According to PMC4336329 (PLoS ONE, 2015):
Among all 310,000 compounds or so, about 2,200 (0.71%) showed an effect of 50% or more. Effects have a minus sign here. The list shows a part of the results.

What follows are molecules tested against human ether-à-go-go-related gene (hERG) potassium channel (human, UniProt Q12809) (assay: primary screen, population patch clamp on CHO cells stably expressing hERG).
Sequence of human ether-à-go-go-related gene (hERG) potassium channel (Q12809 whole entry, looked up): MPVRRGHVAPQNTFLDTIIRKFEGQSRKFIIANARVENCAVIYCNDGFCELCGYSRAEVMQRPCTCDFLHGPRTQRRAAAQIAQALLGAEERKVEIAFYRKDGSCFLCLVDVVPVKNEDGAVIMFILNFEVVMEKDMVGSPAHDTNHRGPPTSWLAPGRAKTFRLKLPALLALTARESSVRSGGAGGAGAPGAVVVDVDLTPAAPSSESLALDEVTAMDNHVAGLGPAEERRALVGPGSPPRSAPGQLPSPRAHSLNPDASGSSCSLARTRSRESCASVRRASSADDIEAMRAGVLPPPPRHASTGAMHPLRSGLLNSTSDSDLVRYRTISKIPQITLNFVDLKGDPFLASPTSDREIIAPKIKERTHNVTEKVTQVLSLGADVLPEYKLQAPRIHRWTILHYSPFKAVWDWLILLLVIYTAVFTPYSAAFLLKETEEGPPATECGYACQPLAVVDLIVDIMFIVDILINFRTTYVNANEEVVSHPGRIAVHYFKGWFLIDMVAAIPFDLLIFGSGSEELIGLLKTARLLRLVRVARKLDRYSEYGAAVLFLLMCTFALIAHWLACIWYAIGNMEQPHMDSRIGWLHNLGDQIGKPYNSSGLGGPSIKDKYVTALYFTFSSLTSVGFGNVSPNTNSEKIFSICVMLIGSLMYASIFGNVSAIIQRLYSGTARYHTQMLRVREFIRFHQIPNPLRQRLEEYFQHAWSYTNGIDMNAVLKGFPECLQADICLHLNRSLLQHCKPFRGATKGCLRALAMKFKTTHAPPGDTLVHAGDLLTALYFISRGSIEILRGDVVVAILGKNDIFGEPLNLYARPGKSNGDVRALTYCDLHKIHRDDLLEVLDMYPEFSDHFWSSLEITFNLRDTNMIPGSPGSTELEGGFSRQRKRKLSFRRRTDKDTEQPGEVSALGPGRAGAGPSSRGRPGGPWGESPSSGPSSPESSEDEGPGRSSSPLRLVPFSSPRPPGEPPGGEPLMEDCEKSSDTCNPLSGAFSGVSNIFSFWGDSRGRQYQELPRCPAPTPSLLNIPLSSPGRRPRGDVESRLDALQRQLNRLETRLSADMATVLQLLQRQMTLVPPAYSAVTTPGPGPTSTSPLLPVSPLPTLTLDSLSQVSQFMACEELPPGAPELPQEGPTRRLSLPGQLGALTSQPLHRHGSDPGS

| Structure (SMILES) | hERG current change (%, negative = inhibition) at 1uM [%] |
| --- | --- |
| O=C(C=C1SCCS1)/C=C/c1ccco1 | 3.43 |
| CCOc1ccc(/C=N/NC(=O)CC(=O)NCc2ccccc2)cc1 | 9.96 |
| O=C(CCc1ccccc1)NNC(=O)Cc1ccc(Cl)cc1 | 14.8 |
| O=C(COC(=O)c1c(F)cccc1F)c1ccc[nH]1 | 12.7 |
| Cc1ccc(S(=O)(=O)N2CCCCC2)cc1C(=O)N(C)CC(=O)Nc1ccc(Cl)c(C(F)(F)F)c1 | 5.92 |
| CC(CN1CCOCC1)OC(=O)COc1ccc(F)cc1 (centres unmarked) | 8.05 |
| Cc1ccc[n+](C(C)C(=O)c2ccc(-c3ccccc3)cc2)c1.[Br-] (centres unmarked) | 2.13 |
| CC1CCC(NC(=O)COC(=O)c2ccco2)CC1 (centres unmarked) | 9.77 |
| COc1ccccc1-c1nnc(SCC(=O)Nc2nc(-c3ccccc3)cs2)n1C | -15.5 |
| O=C(O)c1cnn(-c2nc(-c3cccc(F)c3)cs2)c1C(F)(F)F | 12.3 |
| CC(=O)Nc1ccc(NC(=O)CSc2nnc3ccc(-c4ccccn4)nn23)cc1 | 9.29 |
| COc1ccc(CCn2c(=S)[nH]c3cc(C(=O)NCc4ccco4)ccc3c2=O)cc1OC | 3.65 |
| Cc1sc2nc(C(C)C)nc(SCC(=O)N3CCOCC3)c2c1C | 10.4 |
| O=C(COC(=O)c1ccc2c(c1)OCO2)NC1CCS(=O)(=O)C1 (centres unmarked) | 5.95 |
| CC(=O)Nc1ccccc1OCC(=O)NCCC1=CCCCC1 | 8.95 |
| COc1ccc(CN(C(=O)c2cccs2)C(C(=O)NC2CCCCC2)c2ccc3ncccc3c2)cc1 (centres unmarked) | -6.69 |
| O=C(NNC1=NCCCCC1)Nc1ccc(Cl)cc1 | 11.5 |
| CCc1ccc(Nc2nc(N3CCOCC3)nc(N3CCOCC3)n2)cc1.Cl | 15.8 |
| CC1CCc2nc3ccc(S(=O)(=O)N4CCC(C(=O)NC(C)c5ccccc5)CC4)cc3c(C(=O)O)c2C1 (centres unmarked) | 24.9 |
| CS(=O)(=O)N1CCN(C(=O)COc2ccc3ccccc3c2)CC1 | 14.4 |

| Structure (SMILES) | hERG current change (%, negative = inhibition) at 1uM [%] |
| --- | --- |
| Cc1cc(NC(=O)COn2nnc3ccccc32)no1 | 8.4 |
| COc1ccc(CNC(=O)c2nc(S(=O)(=O)Cc3ccccc3)ncc2Cl)cc1 | 5.21 |
| Cc1nnc(NC(=O)c2csc3c2CCCC3)s1 | 9.19 |
| CCOc1ccccc1C1C(C#N)=C(N)Oc2cc(N)ccc21 (centres unmarked) | 1.83 |
| O=C(NC(=S)N1CCN(C/C=C/c2ccccc2)CC1)c1ccc(Cl)nc1 | 5.61 |
| COc1cccc(/C=C/C(=O)OCC(=O)NCCC2=CCCCC2)c1 | -1.66 |
| Clc1ccc2nc(-c3ccc(Cl)nc3)[nH]c2c1 | 11.5 |
| O=C(NCCc1c[nH]c2ccccc12)Nc1ccccc1 | 16.3 |
| CCOc1ccc(OCC)c(NC(=O)C2CCCN(S(=O)(=O)c3ccc(C)cc3)C2)c1 (centres unmarked) | 15.9 |
| Cn1c(CN2CCOCC2)nnc1SCC(=O)Nc1cccc(C(F)(F)F)c1 | 8.57 |
| CCOC(=O)c1c(C)[nH]c(C)c1C(=O)COc1ncnc2ccccc12 | 17.7 |
| O=C(c1cc(-c2ccc(F)cc2)on1)N1CCCCCC1 | 10.9 |
| COc1cccc(/C=C(\C#N)c2nc3ccccc3[nH]2)c1OCC(=O)O | 17.3 |
| Cc1ccc(S(=O)(=O)c2nc(S(C)(=O)=O)sc2N2CCCC2)cc1 | 15.1 |
| Cc1cc(C(F)(F)F)c2c(N)c(C(=O)NC3CC3)sc2n1 | 16.5 |
| O=C(CN1CCN(Cc2ccc(F)cc2)C1=O)NC1CCCC1 | 8.01 |
| COc1ccccc1CCC(=O)OCC(=O)N1c2ccccc2NC(=O)C1(C)C | 18.1 |
| Cc1ccc2cc(CN(Cc3ccco3)C(=O)c3cccs3)c(=O)[nH]c2c1 | 0.254 |
| CCn1c(CNc2ccc(Cl)cc2)nnc1SCC(=O)OC1CCCCC1 | -5.69 |
| CC(C)CCNC(=O)CN(C)S(=O)(=O)c1cccc2nsnc12 | 10.7 |

| Structure (SMILES) | hERG current change (%, negative = inhibition) at 1uM [%] |
| --- | --- |
| CCOc1ccc(-c2cccc(NS(=O)(=O)c3ccc([N+](=O)[O-])cc3)c2)nn1 | -1.87 |
| O=C(Nc1cccc(S(=O)(=O)N2CCOCC2)c1)c1cc2c(s1)CCC2 | 7.19 |
| Cc1ccnc(SC2CC(=O)N(c3ccc(Br)cc3)C2=O)n1 (centres unmarked) | 13.5 |
| O=C(Cn1nc(-c2cccc([N+](=O)[O-])c2)c2ccccc2c1=O)NCC1CCCO1 (centres unmarked) | 6.93 |
| NC(=O)CN1CCN(C(=O)NC2CCCCC2)CC1 | 4.67 |
| CCCCOCCCNC(=O)COc1ccccc1 | 17.2 |
| Cc1nc(SCC(=O)N2CCOCC2)c2ccsc2n1 | 5.82 |
| CC(C)CNC(=O)NC(=O)CSc1nc2ccccc2n1CC(C)C | 6.65 |
| COc1ccc2c(c1)CCCC21SC(NC(C)=O)=NN1C(C)=O (centres unmarked) | 11.3 |
| CC1CCC(NC(=O)CSc2nncs2)CC1 (centres unmarked) | 4.93 |
| O=S(=O)(NC1CN2CCC1CC2)c1ccc(Cl)cc1 (centres unmarked) | 13.1 |
| CCN(CC)CCOC(=O)c1ccc(N/C=C(/C#N)c2nc(-c3ccc4c(c3)OCO4)cs2)cc1 | 12.3 |
| CCOc1cc2c(cc1C=O)OC(C)C2 (centres unmarked) | 11.1 |
| CCOC(=O)N1CCN(C(=O)COc2cc(=O)n(C)c3ccccc23)CC1 | -0.465 |
| Nc1cc(N)nc(SCC(=O)Nc2ccc3c(c2)OCO3)n1 | 6.41 |
| Cc1ccc(C(=O)N2CCc3ccccc32)o1 | 14.9 |
| Cc1ccc(Nc2cc(-n3nc(C)cc3C)ncn2)c(C)c1 | 5.93 |
| O=C(C[n+]1ccccc1)N/N=C/c1cc(Br)cc(Br)c1O.[Cl-] | 5.48 |
| COc1cc(S(=O)(=O)N(Cc2ccccc2)Cc2ccccn2)ccc1-n1cnnn1 | 5.68 |
